Results taken from PubChem BioAssay AID1454 (National Center for Advancing Translational Sciences (NCATS), 2008).
Screen size: about 130,000 compounds; about 550 (0.42%) were called active. Inconclusive results, whose numbers are uncertain, are shown with a selection of clear calls. Calls come from the whole dose curve; as a rule, active = well fitted inhibition curve with a large enough effect; inconclusive = small, poorly fitted or top-dose-only effect, or effect the other way; inactive = flat fitted curve, though single readings scatter. No potency is given beside an inconclusive call; the fits are too rough.

assay: qHTS Assay for Inhibitors of the ERK Signaling Pathway using a Homogeneous Screening Assay; Stimulation with EGF; conditions: HEK293-V1b, EGF-stimulated phospho-ERK AlphaScreen; note: nearly all actives have a fitted effect of over 55% in size
How it was run: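 EGF-stimulated (25 nM, 5 min) phospho-ERK in HEK293 cells stably expressing V1b, cells pretreated 30 min with compound at 37C. Homogeneous AlphaScreen read on lysates.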
Potency is the fitted concentration of half-maximal effect; tags give direction and shape of the fitted curve.

Row | SMILES | Potency
1 | O=C(NCc1ccccn1)c1n[nH]c(=O)c2ccccc12 | inconclusive [activator, partial curve, poor fit]
2 | COC(=O)c1c(Cl)c2n3ccccc3c(C)c(-c3ccccc3)c-2c1C(=O)OC | inconclusive [inhibitor, partial curve]
3 | C=CCn1c(O)c(N=NC(=S)Nc2cccc(OC)c2)c2ccccc21 | inconclusive [inhibitor, single point]
4 | COc1ccc(-c2csc(NC(=O)c3ccccc3NS(=O)(=O)c3ccc(C)cc3)n2)cc1 | inconclusive [inhibitor, partial curve]
5 | COc1ccc(-c2csc(Nc3ccc(S(=O)(=O)Nc4cc(OC)nc(OC)n4)cc3)n2)cc1 | inconclusive [inhibitor, single point]
6 | CCOC(=O)C1(O)Oc2cc(OC)cc(OC)c2C(=O)C1c1ccccc1 (stereo not drawn) | inactive
7 | O=S(=O)(c1cccc2nonc12)N1CCN(c2ccccc2F)CC1 | inconclusive [inhibitor, single point]
8 | C[C@]12C[C@H](O)CC(CO)(CO)C1[C@H](O)C[C@@]13CC4[C@@H](CC12)[C@@]4(C)C3 (stereo partly drawn) | inactive
9 | CCOC(=O)c1c(NC(=O)C2=C(C)NC(=S)NC2c2ccccc2C(F)(F)F)sc(C)c1C (stereo not drawn) | inconclusive [activator, full curve]
10 | COc1cc(CC(=O)OCC(=O)Nc2sccc2C(N)=O)cc(OC)c1OC | inconclusive [inhibitor, single point]
11 | Cc1ccc(CN=c2c([N+](=O)[O-])nn(-c3cccc(Cl)c3)n2O)cc1 | inconclusive [inhibitor, single point]
12 | CCc1ccc(NC(=O)COc2ccc(Br)cn2)cc1 | inactive
13 | Cc1cccc(CNc2ncnc3ccc(-c4cccc(NS(C)(=O)=O)c4)cc23)c1 | active: 6.31 µM
14 | Cc1ccc(C2=Nc3c(ccc4ccccc34)C(c3ccncc3)=NN2)cc1 | inconclusive [inhibitor, single point]
15 | CCOC(=O)C1(CCOc2ccccc2)CCN(Cc2cccn2-c2cccnc2)CC1 | inconclusive [inhibitor, full curve, poor fit]
16 | O=C(Nc1cccc(S(=O)(=O)N2CCOCC2)c1)c1cnn2c(C(F)F)cc(-c3ccccc3)nc12 | inconclusive [inhibitor, single point]
17 | S=c1[nH]nc(-c2cccnc2)n1C1CCCCC1 | inactive
18 | COc1ccc2nc(N=Nc3c(O)ccc4ccccc34)sc2c1 | inconclusive [inhibitor, full curve]
19 | O=C(c1cccc(F)c1)N1CCN(S(=O)(=O)Cc2ccccc2)CC1 | inconclusive [inhibitor, full curve, poor fit]
20 | S=C(NCCc1ccccc1)N1CCN(C23CC4CC(CC(C4)C2)C3)CC1 | inconclusive [inhibitor, partial curve]
21 | CCn1c(SCC(=O)Nc2ccc(OC)cc2)nc2nc3c(cc2c1=O)CCCC3 | inconclusive [inhibitor, single point]

Row | SMILES | Potency
22 | Cc1nc(NC(=O)/C=C/c2ccc(Cl)cc2Cl)sc1C(=O)N(C)C | inactive
23 | COC(=O)c1ccc(CSc2ccccc2C)o1 | inconclusive [inhibitor, full curve, poor fit]
24 | CC1CCN(c2cc(N3CCN(C(=O)c4ccc(F)c(F)c4)CC3)c([N+](=O)[O-])cc2F)CC1 | inconclusive [inhibitor, partial curve, poor fit]
25 | Cc1ccc(C2(C(F)(F)F)NC(=O)N3N=C4CCCCCN4C3=C2C#N)cc1 (stereo not drawn) | inconclusive [inhibitor, single point]
26 | COc1ccc(C(CNC(=O)COc2ccc(-c3ccccc3)cc2)N2CCOCC2)cc1 (stereo not drawn) | inconclusive [inhibitor, single point]
27 | CCOc1ccc(NC(=O)COC(=O)C23CC4CC(CC(C4)C2)C3)c([N+](=O)[O-])c1 | inconclusive [inhibitor, partial curve]
28 | O=C(Nc1ccccc1)N1CCC2(CC1)CCN(C(=O)c1ccco1)CC2 | inactive
29 | Cc1nc2cnc(Oc3cccc(Cl)c3)nc2n(CCc2ccccc2)c1=O | inactive
30 | O=C1/C(=C/c2cccs2)Sc2ccccc21 | inconclusive [inhibitor, partial curve]
31 | C[C@@H]1NC(=O)[C@H](CCCN=C(N)N)NC(=O)c2cc([N+](=O)[O-])cc(I)c2NCCC[C@@H](C(N)=O)NC1=O | inconclusive [activator, full curve]
32 | O=C1/C(=C/c2ccc(O)cc2)SC(=S)N1CC1CCCO1 (stereo not drawn) | inconclusive [inhibitor, single point]
33 | CNC(=O)NC(=O)CSc1nc(-c2cccs2)c(C#N)c(=O)[nH]1 | inactive
34 | COc1ccc(/C=C/C(=O)c2cc(O)ccc2O)cc1 | inconclusive [inhibitor, single point]
35 | CCC(C)n1ncn(-c2ccc(N3CCN(c4ccc(OCC5COC(Cn6cncn6)(c6ccc(Cl)cc6Cl)O5)cc4)CC3)cc2)c1=O (stereo not drawn) | inconclusive [inhibitor, partial curve]
36 | Cc1cc(N=NC(=O)c2ccccc2O)c2ccccc2c1O | inconclusive [inhibitor, partial curve, poor fit]
37 | O=C1C(Cl)=C(Nc2ccc3cn[nH]c3c2)C(=O)c2ccccc21 | active: 15.8 µM
38 | COc1ccc(C2C3(C#N)C(N)=NC(OC)(OC)C23C#N)cc1 (stereo not drawn) | active: 25.1 µM
39 | N#Cc1cccc(NC(=O)N2CC3(CCN(C(=O)c4ccco4)CC3)C2)c1 | inconclusive [inhibitor, partial curve, poor fit]
40 | CC[C@@H](C)[C@H]1O[C@]2(CC[C@@H]1C)C[C@@H]1C[C@H](C/C=C(/C)[C@H](O[C@@H]3C[C@H](OC)[C@H](O[C@@H]4C[C@H](OC)[C@@H](O)[C@H](C)O4)[C@H](C)O3)[C@@H](C)/C=C\C=C3CO[C@@H]4[C@H](O)C(C)=C[C@@H](C(=O)O1)[C@]34O)O2 (tested in a mixture with another compound) | inconclusive [inhibitor, single point]
41 | O=c1cc(-c2ccccc2Cl)oc2c(NS(=O)(=O)c3cc(Cl)cc(Cl)c3O)ccc(O)c12 | inconclusive [inhibitor, single point]
42 | COc1ccc(/C=N/NC(=O)c2c(C)nc3ccc(Br)cn23)cc1OC | inactive

Row | SMILES | Potency
43 | O=[N+]([O-])c1cccc(-c2csc(N/N=C/c3cccc(O)c3)n2)c1 | inconclusive [inhibitor, partial curve]
44 | CCn1c(=O)c([N+](=O)[O-])c(N2CCN(Cc3ccc4c(c3)OCO4)CC2)c2ccccc21 | inconclusive [inhibitor, single point]
45 | CCOc1ccc(N(CC(=O)N/N=C/c2cc(Br)c(C)o2)S(C)(=O)=O)cc1 | inactive
46 | CCCc1cc(C(=O)N2CCCC(C(=O)c3cccc4ccccc34)C2)n(C)n1 (stereo not drawn) | inconclusive [inhibitor, single point]
47 | O=C(CSc1ccc2nnc(-c3ccccc3)n2n1)NCC1CCCO1 (stereo not drawn) | inconclusive [activator, partial curve, poor fit]
48 | CCOC(=O)N1CCC(NC(=O)C2CCN(S(=O)(=O)c3ccc4c(c3)oc(=O)n4C)CC2)CC1 | inconclusive [inhibitor, single point]
49 | Cc1ccccc1-c1nc(CN(Cc2c(C)nn(C)c2C)C2CC2)c(C)o1 | inconclusive [activator, full curve, poor fit]
50 | Cc1nc2sc3c(c2c(=O)[nH]1)CCCC3 | inactive
51 | O=S(=O)(Nc1ccc(O)c(Sc2nc3ccccc3s2)c1)c1ccc(F)cc1 | inconclusive [inhibitor, single point]
52 | CCn1c2ccccc2c2c3ncc4cccn4c3ccc21 | inconclusive [activator, partial curve]
53 | O=C(Cn1cnc([N+](=O)[O-])n1)N/N=C/c1cc(Cl)ccc1O | inactive
54 | O=C(NC(=S)NC1CCSC1=O)c1ccccc1 (stereo not drawn) | inconclusive [inhibitor, partial curve]
55 | CCC(C)(C)c1ccc(OCC(=O)N(C)C)c(C(C)(C)CC)c1 | inconclusive [inhibitor, single point]
56 | COc1ccc(CNC(=O)c2cc(-c3cc(C)cc(C)c3O)n[nH]2)cc1 | inconclusive [inhibitor, partial curve]
57 | O=C1CC(c2ccc(F)cc2)Cc2nc(NCC3CCCO3)ncc21 (stereo not drawn) | inconclusive [inhibitor, single point]
58 | Cc1ccc2nc(Cl)c3nnnn3c2c1 | inconclusive [inhibitor, single point]
59 | CCCn1c(C)nc2c(Nc3ccccc3)nc(C)nc21 | inactive
60 | Cc1sc(NC(=O)c2ccccc2)c(C#N)c1-c1ccccc1 | inconclusive [inhibitor, single point]
61 | CCOC(=O)c1sc(=NC(=O)c2cccs2)n(C)c1C | inactive
62 | O=C1CCCC1C(O)c1ccc2ccccc2c1 (stereo not drawn) | inactive
63 | CN(C(=O)COc1ccccc1)c1nnc(C23CC4CC(CC(C4)C2)C3)s1 | inconclusive [inhibitor, partial curve, poor fit]
